# Measured values from PubChem BioAssay AID686970 (National Center for Advancing Translational Sciences (NCATS), 2013).
# Among all 360,000 compounds or so, about 6,000 (1.7%) were called active. This list was built around the results that the source calls inconclusive (neither active nor inactive); the mix of calls is not that of the screen. Calls come from the whole dose curve; as a rule, active = well fitted cell-killing curve with a large enough effect; inconclusive = small, poorly fitted or top-dose-only effect, or effect the other way; inactive = flat fitted curve, though single readings scatter. Potencies of inconclusive entries are left out as doubtful fits.
# Test: qHTS for induction of synthetic lethality in tumor cells producing 2HG: qHTS for the HT-1080-NT fibrosarcoma cell line;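 note: NT is the 2HG producing partner of a matched IDH1 knockdown line; nearly all actives have a fitted effect of over 55% in size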;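 for activity, negative = less viability: 0% = DMSO-treated cells and -100% = media-only wells without cells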
# Conditions: HT-1080-NT fibrosarcoma viability, CellTiter-Glo ATP luminescence, 48 h; activity, negative = less viability: at 46.1 µM (top of the series) unless noted
# Procedure, shortened: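 750 cells/well, RPMI + 5% FBS; 2 h settle, compound pin-transfer, 48 h at 37 degrees C. CellTiter-Glo 10 min RT, luminescence. Normalized to DMSO and media-only wells.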
# Potency is the fitted concentration of half-maximal effect; tags give direction and shape of the fitted curve.
Compound,Potency,"activity, negative = less viability"
NC(=O)SCC(=O)Nc1ccc(Cl)cc1,"inconclusive [cytotoxic, single point]",–
Cc1ccc(NC(=O)Cn2c(=O)oc3cc(S(=O)(=O)N4CCC(C)CC4)ccc32)cc1C,"inconclusive [cytotoxic, single point]",–
CC1CCCC=CC2CC(OC(=O)CN(C)C)CC2C(O)C=CC(=O)O1 (stereo not given),"inconclusive [cytotoxic, full curve]",–
CC(C)n1cc(CN2CCC(C(=O)Nc3ccc(Oc4ccccc4F)cc3)CC2)cn1,"inconclusive [cytotoxic, single point]",–
O=C(NCC1CC1)c1cccc2c(-c3ccc(F)c(F)c3)coc12,inactive,–
O=C(Nc1ccc(S(=O)(=O)N2CCCC2)cc1)c1ccc(Cl)nc1,inactive,–
CC(C)N(C(=O)CSc1nnc(-c2cc3ccccc3cc2O)n1Cc1ccco1)C(C)C,"inconclusive [cytotoxic, single point]",–
CC(C)CCNC(=O)C(=O)Nc1ccccc1,"inconclusive [rising, single point]",–
O=C(NCCc1cccc(F)c1)C1CC(O)CN1C(=O)Nc1ccccc1 (stereo not given),inactive,–
Cc1cc(C)n(CC(O)Cn2c3ccc(Br)cc3c3cc(Br)ccc32)c(=O)n1 (stereo not given),"inconclusive [cytotoxic, single point]",–
CN(C)C(=O)c1cccc(-c2cc(NC=O)c3ncc(-c4ccc(F)c(Cl)c4)n3c2)c1,"inconclusive [cytotoxic, single point]",–
CC1=CC(C)(C)NC(=S)N1CCO,inactive,–
O=C(Nc1nc2ccccc2n1CCN1CCOCC1)c1cn(-c2ccccc2)nc1-c1ccccc1,"inconclusive [cytotoxic, partial curve]",–
Cc1ccc(S(=O)(=O)Nc2cc(-c3ccccc3)nn2C)cc1,"inconclusive [rising, single point]",–
C=CCn1sc(=N)c(C#N)c1N,–,inconclusive: -30.3% [cytotoxic]
CN(C)CCCN(C(=O)c1cc(-c2cccs2)nc2ccccc12)c1nc2c(F)cccc2s1,"inconclusive [cytotoxic, single point]",–
C(=Cc1c[nH]c2ccccc12)c1nccc2ccccc12,"inconclusive [cytotoxic, single point]",–
O=C(CSc1oc(-c2cccs2)nc1S(=O)(=O)c1ccccc1)NC1CCCCC1,inactive,–
COc1ccc(CNC(=O)Nc2nc(C(N)CCc3ccccc3)cs2)cc1 (stereo not given),active: 18.4 µM,–
Cc1ccc(N(CC(=O)NCCSCc2ccco2)S(C)(=O)=O)cc1,inactive,–
O=C(CN1C(=O)c2ccccc2S1(=O)=O)Nc1ccc([N+](=O)[O-])cc1,inactive,–
COc1cccc(C(O)c2nc(-c3ccc(F)cc3OC)cs2)c1 (stereo not given),–,inconclusive: -1.12%
NCCN(Cc1ccc(Cl)c(Cl)c1)c1ccc(Br)cn1,active: 11.2 µM,–

Compound,Potency,"activity, negative = less viability"
CC(C)CC(N)c1csc(NC(=O)c2cc(C(C)(C)C)nn2Cc2ccccc2)n1 (stereo not given),active: 11.6 µM,–
Cc1ccc(NC(=O)C(C)c2cccc(C(=O)c3ccccc3)c2)cc1 (stereo not given),"inconclusive [cytotoxic, single point]",–
COc1ccc(N=CC2=C(O)c3ccccc3C2=O)c(OC)c1,"inconclusive [cytotoxic, full curve, poor fit]",–
Cc1ccccc1-c1cc2nc(NCCCN(C)C)n(C)c(=O)c2s1,"inconclusive [cytotoxic, single point]",–
Cc1ccc2c(c1)C(=O)C(=O)N2Cc1ccc(Cl)cc1,"inconclusive [cytotoxic, single point]",–
CCOc1ccc(NC(=S)N(Cc2ccc(Cl)cc2)Cc2ccco2)cc1,"inconclusive [cytotoxic, single point]",–
Cc1cc(C)c(N2C(=O)CC(Sc3ccccc3N)C2=O)c(C)c1 (stereo not given),"inconclusive [cytotoxic, single point]",–
Fc1ccc(Nc2nc(NCc3ccco3)c3ccccc3n2)cc1,"inconclusive [cytotoxic, single point]",–
CCOC(=O)C(=O)N=Nc1c(O)n(C)c2ccccc12,inactive,–
Cc1cc(NC(=O)NN2CCOCC2)nn1-c1c(Cl)cccc1Cl,inactive,–
O=C(Cn1ccc(=O)[nH]c1=O)c1ccc([N+](=O)[O-])o1,"inconclusive [cytotoxic, single point]",–
CC(C)CC1C(=O)N(Cc2cn(CCC3OCCO3)nn2)CCS(=O)(=O)N1Cc1ccc(-c2ccccc2)cc1 (stereo not given),"inconclusive [cytotoxic, single point]",–
COc1ccc(Cn2c(CCC(=O)Nc3ccc(CC#N)cc3)nc3cccnc32)cc1,"inconclusive [cytotoxic, single point]",–
Cc1ccc(NC(=O)CSc2nnc(-c3cc(C)[nH]n3)n2N)c(C)c1,inactive,–
Cn1c(=O)c(=O)n(C)c2cc(S(=O)(=O)N3CCCC3C(=O)NCc3cccnc3)ccc21 (stereo not given),"inconclusive [rising, single point]",–
CCN(CC)CCCNC(=O)c1cc2c(=O)[nH]c3ccc(C)cc3c2s1,"inconclusive [cytotoxic, partial curve, poor fit]",–
CC1(C)N=C(N)N=C(N)N1CCCCc1ccccc1,"inconclusive [cytotoxic, full curve]",–
CCc1cc(=O)oc2cc(C)cc(OCC(=O)N3CCC(C(=O)NC(C)C)(c4ccccc4)CC3)c12,inactive,–
CN(Cc1ccccc1)CC(O)COc1ccc(CNCc2ccc(Cl)s2)cc1 (stereo not given),active: 20.6 µM,–
Cc1cc(-c2ccc(C)c(S(=O)(=O)NCC3CCN(Cc4ccc(F)cc4)CC3)c2)on1,"inconclusive [cytotoxic, single point]",–
CCOc1ccc(C(=O)Nc2cccc(C)n2)cc1,"inconclusive [cytotoxic, single point]",–
Cc1cccc2sc(NNC(=O)c3ccc(S(=O)(=O)N4CCCC(C)C4)cc3)nc12 (stereo not given),"inconclusive [cytotoxic, single point]",–
